In all, about 310,000 compounds went through this assay and about 2,200 (0.71%) showed an effect of 50% or more. The effect is printed as a negative number. The list shows a part of the results.
Target: human ether-à-go-go-related gene (hERG) potassium channel (human, UniProt Q12809)
Assay: primary screen, population patch clamp on CHO cells stably expressing hERG

human ether-à-go-go-related gene (hERG) potassium channel, sequence (Q12809 whole entry, looked up): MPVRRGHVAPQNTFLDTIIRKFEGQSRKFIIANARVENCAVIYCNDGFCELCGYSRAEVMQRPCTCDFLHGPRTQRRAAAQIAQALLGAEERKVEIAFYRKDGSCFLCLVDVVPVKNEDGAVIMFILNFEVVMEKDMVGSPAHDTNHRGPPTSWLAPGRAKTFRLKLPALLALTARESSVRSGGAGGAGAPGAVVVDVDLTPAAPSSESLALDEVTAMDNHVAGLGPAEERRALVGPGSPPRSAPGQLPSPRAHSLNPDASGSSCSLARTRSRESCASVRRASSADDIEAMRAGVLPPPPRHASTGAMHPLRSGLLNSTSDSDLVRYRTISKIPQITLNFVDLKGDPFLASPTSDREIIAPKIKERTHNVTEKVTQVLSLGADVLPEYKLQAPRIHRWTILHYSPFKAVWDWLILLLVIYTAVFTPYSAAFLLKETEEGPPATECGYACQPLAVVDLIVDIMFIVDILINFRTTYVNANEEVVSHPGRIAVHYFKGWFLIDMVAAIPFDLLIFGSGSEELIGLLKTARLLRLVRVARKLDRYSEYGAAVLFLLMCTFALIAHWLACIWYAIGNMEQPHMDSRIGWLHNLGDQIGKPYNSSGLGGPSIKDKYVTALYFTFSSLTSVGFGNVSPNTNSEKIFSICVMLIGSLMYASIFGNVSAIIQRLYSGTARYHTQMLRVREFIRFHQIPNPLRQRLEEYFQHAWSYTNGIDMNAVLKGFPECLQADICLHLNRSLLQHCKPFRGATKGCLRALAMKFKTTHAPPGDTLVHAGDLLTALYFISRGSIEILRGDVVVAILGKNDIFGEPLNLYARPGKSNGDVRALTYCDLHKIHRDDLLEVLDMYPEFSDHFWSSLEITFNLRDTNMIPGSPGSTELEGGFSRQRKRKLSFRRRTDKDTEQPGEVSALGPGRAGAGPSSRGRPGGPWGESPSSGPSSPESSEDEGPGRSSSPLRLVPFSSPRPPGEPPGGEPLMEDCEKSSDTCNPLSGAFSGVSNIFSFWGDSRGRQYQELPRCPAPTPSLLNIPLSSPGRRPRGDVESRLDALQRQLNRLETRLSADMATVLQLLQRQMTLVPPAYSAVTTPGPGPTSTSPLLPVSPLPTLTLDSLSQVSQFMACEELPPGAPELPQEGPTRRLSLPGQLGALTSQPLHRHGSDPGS

Row | Structure (SMILES) | hERG current change (%, negative = inhibition) at 1uM [%]
1 | C=CCn1c(SCC(=O)N2CCc3ccccc3C2)nc2sc(C)cc2c1=O | -2.33
2 | C/[N+]([O-])=C\c1ccc([N+](=O)[O-])o1 | 15.3
3 | COC(=O)C1=NNC(C(=O)c2ccco2)C1c1ccc(OC)cc1 (stereo not drawn) | 11.3
4 | CCN(CC)CCNc1nc2c(c(=O)[nH]c(=O)n2C)n1CCCc1ccccc1 | 0.0626
5 | Clc1ccc(/C=N/c2c(-c3ccc(Cl)cc3)nc3n2CCS3)cc1 | 4.27
6 | O=Cc1ccccc1OCc1ccc2c(c1)OCO2 | 13.4
7 | CC(C)Nc1cc(C(C)(C)C)nc2c(-c3ccccc3)cnn12 | 7.4
8 | CC1(C)CC(CC(=O)NC(=S)Nc2ccc([N+](=O)[O-])cc2)C(=O)O1 (stereo not drawn) | 6.95
9 | Cc1ccccc1CCN1CCCC(CN(C)C(=O)C(=O)c2ccco2)C1 (stereo not drawn) | -17.7
10 | O=C(O)CC(CC(=O)O)(C(=O)O)c1ccccc1 | 14.6
11 | O=C(CN1CCN(Cc2ccccc2)CC1)N/N=C/c1ccccc1F | 3.96
12 | O=C(CSCc1c(Cl)cccc1Cl)Nc1ccc2c(c1)OCCO2 | -3.39
13 | COc1cc(OC)c(-c2nc(-c3ccncc3)no2)cc1OC | 16.7
14 | Cc1ccc(S(=O)(=O)CCNC(=O)Cc2ccccc2)cc1 | 8.96
15 | Cc1ccc(Cn2nnc3c(=O)n(CC(=O)NCc4ccco4)cnc32)cc1 | 6.11
16 | C=C(C)CN(Cc1ccccc1)C(=S)Nc1ccccc1 | 13.7
17 | C/C(=N\NC(=O)CCCNc1ccc(C)cc1)c1ccccn1 | -8.17
18 | Clc1ccc(OCCOCCOc2cccc3cccnc23)c(Br)c1 | 15.3
19 | CC(C)CC(NC(=O)C1CCCCC1)C(=O)N1CCC2(CC1)OCCO2 (stereo not drawn) | -12.4
20 | CC(C)(C)N1C(=O)[C@H]2[C@@H](c3ccc(Br)cc3)N3C(=O)N(c4ccc(Br)cc4)C(=O)[C@@]3(Cc3ccccc3)[C@H]2C1=O | 6.02
21 | CCN(CC)C(=O)c1cnn(-c2ccccc2)c1NC(=O)c1cccc(F)c1 | 9.12
22 | NC(=O)CC(NC(=O)c1ccc(Br)cc1)c1ccc(N2CCCCCC2)c([N+](=O)[O-])c1 (stereo not drawn) | 9.48
23 | C=C1N2CCC(CC2)C1(O)c1ccc(C)c(C)c1.Cl (stereo not drawn) | 15.7

Row | Structure (SMILES) | hERG current change (%, negative = inhibition) at 1uM [%]
24 | N#Cc1nccnc1N1CCN(C(=O)Nc2ccccc2)CC1 | 7.98
25 | COc1cc(C(=O)Nc2cc(-c3cn4cccnc4n3)ccc2C)cc(OC)c1OC | 0.852
26 | Cc1ccnc(SC2CC(=O)N(c3ccc(F)cc3)C2=O)n1 (stereo not drawn) | 13
27 | COC(=O)c1ccc(NS(=O)(=O)c2ccc(OC)cc2)cc1 | 3.2
28 | CCCCN(C)CCNC(=O)c1cc2c(-c3ccccc3F)nn(C)c2s1 | 7.26
29 | O=C(CN1C(=O)CCC1=O)NCC12CC3CC(CC(C3)C1)C2 | -0.0272
30 | CCc1ccccc1NC(=S)N(CCN1CCOCC1)Cc1ccccc1F | 18.7
31 | Cc1ccc(NC(=O)c2nsc(Cl)c2Cl)cc1 | 4.07
32 | CCCSc1cc(NCCOC(C)=O)c([N+](=O)[O-])c2nonc12 | -10.7
33 | O=[N+]([O-])c1c(Nc2ccccc2O)ccc2nonc12 | 3.97
34 | O=C(Nc1ccc2c(c1)CCC2)c1cccs1 | 11.4
35 | Cc1cccc(N2CCN(CC(=O)Nc3nccs3)CC2)c1C | -3.89
36 | COc1cccc(C(=O)NNC(=O)CCc2ccccc2)c1 | 10.1
37 | O=C(CSc1n[nH]c(-c2cccs2)n1)N1CCCCC1 | 7.23
38 | c1ccc(-c2nccc(-c3ccc(-n4cnc5ccccc54)cc3)n2)cc1 | 9.86
39 | Cc1ccc(C2C(C#N)=C(N)SC(N)=C2C#N)c(C)c1 | 14.3
40 | CC1CCN(C(=O)CCc2ccc(S(=O)(=O)NC(C)(C)C)cc2)CC1 | -0.657
41 | Cc1cccc(-n2ncc3c2CCCC3NC(=O)C2(C(N)=O)CC2)c1C (stereo not drawn) | 10.7
42 | CN1C(=O)C(CCC(=O)O)NC1=S (stereo not drawn) | 10.1
43 | O=C1C(Cl)=C(N2CCCC2)C(=O)N1c1ccccc1F | 14.7
44 | CCOC(=O)c1cn(CC(=O)Nc2ccc(C(C)C)cc2)nn1 | 8.55
45 | CCOc1ccccc1-n1c(SCC(=O)NC2CCCC2)nnc1-c1ccoc1C | -8.33

Source: article PMC4336329 (PLoS ONE, 2015)
